From the supplement of paper PMC10126150
Values marked as one replicate rest on one cluster of the flow cell; about a third of the high ones do not repeat.
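Further: ATP exposure 15 min at 22 °C before imaging.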

What follows are sequences tested on ATP (assay: switch fluorescence ratio, 500 uM ATP over buffer (Cy3 cluster intensity, sum of 5 cycles each) (fold (ratio)); higher = stronger signal-on switching upon ATP binding; sequences stand for … in TCGTCGGCAGCGTCAGATGTGTATAAGAGACAGTTTTTTTTTTTTTTTTTTTTTTTTT…TC). Conditions: aptamer strand: ATP DNA aptamer (quencher-CACCTGGGGGAGTATTGCGGAGGAAGG + anchor), 100 nM annealed; ATP concentration: 500 uM; one replicate.
In short: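 Per cluster, summed Cy3 intensity from the target cycles was divided by that from the buffer cycles to give the fluorescence ratio, then averaged per switch-domain sequence. Clusters outside 100-1000 RFU were excluded. The Cy3-labelled switching-strand clusters, on a modified Illumina MiSeq flow-cell, were annealed to 100 nM quencher-labelled ATP aptamer and imaged in selection buffer, then after 15 min with 500 uM ATP at 22 °C, for five cycles with NaOH stripping and re-annealing between them.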
GTTGATATAC showed a switch fluorescence ratio of 1.01. GTTGATGAAA gave a switch fluorescence ratio of 1. For GTTGATGGTT, the switch fluorescence ratio was 0.999. For GTTGATTAGG, the switch fluorescence ratio was 1.03. Sequence GTTGCCGGAA has a switch fluorescence ratio of 0.998. GTTGCGACAC was tested, and the switch fluorescence ratio was 0.989. GTTGCGATGC gave a switch fluorescence ratio of 2.41. GTTGCTATCG gave a switch fluorescence ratio of 0.984. Work on GTTGGAAATA yielded a switch fluorescence ratio of 0.967. GTTGGCAGGT gave a switch fluorescence ratio of 0.99. GTTGGCTTAA was tested, and the switch fluorescence ratio was 1.02. For GTTGGGATCG, the switch fluorescence ratio was 0.968. With GTTGGGGA the switch fluorescence ratio was 1.03. GTTGGGGAG was tested, and the switch fluorescence ratio was 1.02. In the case of GTTGGGTCG, the switch fluorescence ratio is reported as 1.03. Work on GTTGGTATAC yielded a switch fluorescence ratio of 1.04. For GTTGGTCACG, the switch fluorescence ratio was 0.989. In the case of GTTGGTCGCC, the switch fluorescence ratio is reported as 1.12. With GTTGGTGC the switch fluorescence ratio was 1.08. For GTTGGTTCGC, the switch fluorescence ratio was 0.974. GTTGGTTGAC gave a switch fluorescence ratio of 1.04. GTTGTAATGA gave a switch fluorescence ratio of 0.953. Sequence GTTGTATAAC has a switch fluorescence ratio of 1.05. Work on GTTGTATATT yielded a switch fluorescence ratio of 1.01. For GTTGTCATAT, the switch fluorescence ratio was 0.967. GTTGTCCCGA gave a switch fluorescence ratio of 1.04. GTTGTCCGCT gave a switch fluorescence ratio of 1.06. For GTTGTCTTTT, the switch fluorescence ratio was 0.981. In the case of GTTGTGAATG, the switch fluorescence ratio is reported as 1.43. GTTGTGATAT was tested, and the switch fluorescence ratio was 0.939. Work on GTTGTGTACG yielded a switch fluorescence ratio of 1.01. With GTTGTGTGA the switch fluorescence ratio was 1. In the case of GTTGTTATTC, the switch fluorescence ratio is reported as 0.95. Work on GTTTAAGCCC yielded a switch fluorescence ratio of 1.01. With GTTTACGGGA the switch fluorescence ratio was 1.04. In the case of GTTTAGAGAA, the switch fluorescence ratio is reported as 0.967. GTTTAGCTAC showed a switch fluorescence ratio of 1.14. In the case of GTTTAGTGTG, the switch fluorescence ratio is reported as 0.986. With GTTTATTGCA the switch fluorescence ratio was 0.962. In the case of GTTTATTTGT, the switch fluorescence ratio is reported as 1. Work on GTTTCCATTC yielded a switch fluorescence ratio of 1.03. In the case of GTTTCCTACA, the switch fluorescence ratio is reported as 0.998. GTTTCCTGCT gave a switch fluorescence ratio of 0.965. With GTTTCGTGTG the switch fluorescence ratio was 1. GTTTCTATAG showed a switch fluorescence ratio of 0.984. GTTTCTATTC was tested, and the switch fluorescence ratio was 1. GTTTGATGTT gave a switch fluorescence ratio of 0.988. Sequence GTTTGCCCCC has a switch fluorescence ratio of 1.08. With GTTTGCTAAT the switch fluorescence ratio was 0.987. GTTTGCTAGG gave a switch fluorescence ratio of 1.01. In the case of GTTTGGGAAT, the switch fluorescence ratio is reported as 0.99. With GTTTGTAAAT the switch fluorescence ratio was 0.977. For GTTTGTAATA, the switch fluorescence ratio was 1.04. GTTTGTCGCG showed a switch fluorescence ratio of 0.962. GTTTGTTTGA was tested, and the switch fluorescence ratio was 1.01. GTTTTACCGT gave a switch fluorescence ratio of 1.04. For GTTTTATATA, the switch fluorescence ratio was 0.993. GTTTTGAAAG gave a switch fluorescence ratio of 1.02. In the case of GTTTTGCATT, the switch fluorescence ratio is reported as 0.997. With GTTTTGCTTT the switch fluorescence ratio was 0.929. For GTTTTGGGCG, the switch fluorescence ratio was 1.01. GTTTTGGTAA showed a switch fluorescence ratio of 0.923. In the case of GTTTTTTCCT, the switch fluorescence ratio is reported as 1.04. TAAAAAGGCT showed a switch fluorescence ratio of 1.01. With TAAAACGGTA the switch fluorescence ratio was 1.06. In the case of TAAAAGAAT, the switch fluorescence ratio is reported as 1.03. TAAAAGAATT showed a switch fluorescence ratio of 1.02. In the case of TAAAAGTCAG, the switch fluorescence ratio is reported as 1. TAAAATAACG gave a switch fluorescence ratio of 1.07. TAAAATTATT showed a switch fluorescence ratio of 1.03. With TAAACAGAGT the switch fluorescence ratio was 0.982. In the case of TAAACAGGCG, the switch fluorescence ratio is reported as 0.986. Work on TAAACATGCC yielded a switch fluorescence ratio of 1.42. TAAACCGGCA was tested, and the switch fluorescence ratio was 1.31. For TAAACGCGCA, the switch fluorescence ratio was 1.1. For TAAACGGAAC, the switch fluorescence ratio was 1.14. In the case of TAAACGTACG, the switch fluorescence ratio is reported as 1.41. TAAACTCAAT was tested, and the switch fluorescence ratio was 1.03. TAAACTCGC gave a switch fluorescence ratio of 1.02. In the case of TAAACTCTTG, the switch fluorescence ratio is reported as 1. TAAACTGGAG was tested, and the switch fluorescence ratio was 0.961. Sequence TAAACTTGGT has a switch fluorescence ratio of 1.01. TAAAGATTA showed a switch fluorescence ratio of 0.977. For TAAAGCCCCA, the switch fluorescence ratio was 0.965. In the case of TAAAGCCCGG, the switch fluorescence ratio is reported as 1.01. With TAAAGCGACC the switch fluorescence ratio was 1.37. For TAAAGCGGGA, the switch fluorescence ratio was 0.973. TAAAGCGTCG gave a switch fluorescence ratio of 0.974. TAAAGCTCTG was tested, and the switch fluorescence ratio was 0.956. In the case of TAAAGGAGC, the switch fluorescence ratio is reported as 0.966. In the case of TAAAGGAGGC, the switch fluorescence ratio is reported as 1.06. Sequence TAAAGGGTCT has a switch fluorescence ratio of 1.04. With TAAAGTCGT the switch fluorescence ratio was 0.974. For TAAATAAAGG, the switch fluorescence ratio was 1.03. TAAATACAA showed a switch fluorescence ratio of 1.1. TAAATAGTCT gave a switch fluorescence ratio of 0.967. TAAATATTAT was tested, and the switch fluorescence ratio was 0.984. TAAATCTCA gave a switch fluorescence ratio of 1.03. In the case of TAAATCTTAG, the switch fluorescence ratio is reported as 0.947. TAAATGTCAA was tested, and the switch fluorescence ratio was 1.03. TAAATGTGTC was tested, and the switch fluorescence ratio was 1.02. Work on TAAATTAAGG yielded a switch fluorescence ratio of 0.966. TAAATTAATA was tested, and the switch fluorescence ratio was 0.982. With TAAATTCCTA the switch fluorescence ratio was 1.01. In the case of TAAATTGGGT, the switch fluorescence ratio is reported as 1. With TAAATTGTTA the switch fluorescence ratio was 0.97. In the case of TAAATTTAGA, the switch fluorescence ratio is reported as 0.97. In the case of TAAATTTCG, the switch fluorescence ratio is reported as 1.08. In the case of TAACATGAG, the switch fluorescence ratio is reported as 0.979. For TAACATGCCT, the switch fluorescence ratio was 1.06. Sequence TAACATGGGA has a switch fluorescence ratio of 1.01. Work on TAACCAAAAA yielded a switch fluorescence ratio of 1.04. In the case of TAACCAAGGT, the switch fluorescence ratio is reported as 1.01. Work on TAACCATCTA yielded a switch fluorescence ratio of 1.03. For TAACCCAATT, the switch fluorescence ratio was 1. Sequence TAACCCTCAT has a switch fluorescence ratio of 1.21. Work on TAACCGGGCT yielded a switch fluorescence ratio of 1.01. TAACCGTAG showed a switch fluorescence ratio of 1.14. Sequence TAACCTGGGC has a switch fluorescence ratio of 1.13. With TAACCTTTAT the switch fluorescence ratio was 1.04. With TAACGAAAGT the switch fluorescence ratio was 1.18. TAACGAACTG was tested, and the switch fluorescence ratio was 1.03. Work on TAACGAGCCT yielded a switch fluorescence ratio of 1.07. Sequence TAACGGTAT has a switch fluorescence ratio of 1.56. In the case of TAACGGTGGC, the switch fluorescence ratio is reported as 1.06. TAACGTTAGG gave a switch fluorescence ratio of 1.01. TAACTACTTG gave a switch fluorescence ratio of 1.03. TAACTCGAGC showed a switch fluorescence ratio of 1.04. Work on TAACTGCATA yielded a switch fluorescence ratio of 1.08. TAACTGTATC gave a switch fluorescence ratio of 1.17. TAACTGTGTG was tested, and the switch fluorescence ratio was 0.988. With TAACTTATGA the switch fluorescence ratio was 1.03. TAAGAAAGC gave a switch fluorescence ratio of 1.82. TAAGAATCTC was tested, and the switch fluorescence ratio was 1.03. TAAGACCGAA was tested, and the switch fluorescence ratio was 0.967. TAAGACCGTA showed a switch fluorescence ratio of 0.984. Work on TAAGACTGTA yielded a switch fluorescence ratio of 0.909. In the case of TAAGACTTGT, the switch fluorescence ratio is reported as 0.993. TAAGAGAGGC gave a switch fluorescence ratio of 1.02. TAAGAGGCCG was tested, and the switch fluorescence ratio was 0.978. Sequence TAAGATACAG has a switch fluorescence ratio of 1.02. TAAGATCCTC was tested, and the switch fluorescence ratio was 0.932. TAAGATGGGC showed a switch fluorescence ratio of 1.01. With TAAGATTGAC the switch fluorescence ratio was 0.999. Work on TAAGCCGGAC yielded a switch fluorescence ratio of 1.02. Work on TAAGCGGTG yielded a switch fluorescence ratio of 1.02. TAAGCTCAGG showed a switch fluorescence ratio of 1.05. With TAAGCTTCGC the switch fluorescence ratio was 1. TAAGGAATC gave a switch fluorescence ratio of 1.01. Sequence TAAGGAATTT has a switch fluorescence ratio of 1.08. In the case of TAAGGCAATC, the switch fluorescence ratio is reported as 2.81. For TAAGGGAACT, the switch fluorescence ratio was 0.958. In the case of TAAGGGGCCT, the switch fluorescence ratio is reported as 1. TAAGGTGTCA was tested, and the switch fluorescence ratio was 1.05. In the case of TAAGTAGGGA, the switch fluorescence ratio is reported as 0.917. TAAGTCTAGT showed a switch fluorescence ratio of 0.975. TAAGTCTC showed a switch fluorescence ratio of 0.959. TAAGTGCTCA gave a switch fluorescence ratio of 0.979. Work on TAAGTGTTAT yielded a switch fluorescence ratio of 1.03. For TAAGTTGATG, the switch fluorescence ratio was 1.05. Work on TAAGTTTATT yielded a switch fluorescence ratio of 1.02. For TAATAAAAAC, the switch fluorescence ratio was 0.996. TAATAACAG showed a switch fluorescence ratio of 1.02. With TAATAATCAT the switch fluorescence ratio was 1.05. Sequence TAATAATCGC has a switch fluorescence ratio of 1.01. For TAATACGGCT, the switch fluorescence ratio was 0.981. With TAATACTAGG the switch fluorescence ratio was 0.985. Work on TAATACTCTG yielded a switch fluorescence ratio of 1.07. For TAATAGTATG, the switch fluorescence ratio was 0.974. Sequence TAATATCGCT has a switch fluorescence ratio of 0.989. Sequence TAATATCTAT has a switch fluorescence ratio of 0.984. Work on TAATCCCGAC yielded a switch fluorescence ratio of 1.04. With TAATCTAATG the switch fluorescence ratio was 0.979. Sequence TAATGAGACT has a switch fluorescence ratio of 1.02. With TAATGATCAG the switch fluorescence ratio was 0.977. TAATGCCGGG was tested, and the switch fluorescence ratio was 1.18. Sequence TAATGCGACT has a switch fluorescence ratio of 1.04. Work on TAATGCTATC yielded a switch fluorescence ratio of 1.03. Work on TAATGCTCCG yielded a switch fluorescence ratio of 1.14. In the case of TAATGCTCCT, the switch fluorescence ratio is reported as 1.68. TAATGGCAAG showed a switch fluorescence ratio of 1.07. TAATGGCCT was tested, and the switch fluorescence ratio was 1.01. For TAATGGGACT, the switch fluorescence ratio was 1.03. With TAATGGGGG the switch fluorescence ratio was 0.992. Work on TAATGGTACG yielded a switch fluorescence ratio of 1. With TAATGGTAGC the switch fluorescence ratio was 0.938. TAATGTTAT was tested, and the switch fluorescence ratio was 0.974. TAATGTTT was tested, and the switch fluorescence ratio was 0.994. TAATTACACT was tested, and the switch fluorescence ratio was 1.01. TAATTCCGTC showed a switch fluorescence ratio of 1.06. Work on TAATTGAAGG yielded a switch fluorescence ratio of 0.969. TAATTGATTT showed a switch fluorescence ratio of 0.989. For TAATTGCCAC, the switch fluorescence ratio was 0.989. For TAATTGTTAC, the switch fluorescence ratio was 0.996. Work on TAATTTATAT yielded a switch fluorescence ratio of 1.01. With TACAAAGGGT the switch fluorescence ratio was 1.01. Sequence TACAAATGGT has a switch fluorescence ratio of 1.03. Sequence TACAACGAAA has a switch fluorescence ratio of 1. Work on TACAACTTCG yielded a switch fluorescence ratio of 0.949. TACAAGGCTC gave a switch fluorescence ratio of 1.21. TACAAGTCTG was tested, and the switch fluorescence ratio was 0.999.
